The other results are listed elsewhere or left out. Sequences were assembled here from the parent chain. Inactive controls read about 0.05.
B1: TEV protease; numbered along this chain (parent)
chain: MGESLFKGPRDYNPISSSICHLTNESDGHTTSLYGIGFGPFIITNKHLFRRNNGTLVVQSLHGVFKVKDTTTLQQHLVDGRDMIIIRMPKDFPPFPQKLKFREPQREERICLVTTNFQTKSMSSMVSDTSCTFPSGDGIFWKHWIQTKDGQCGSPLVSTRDGFIVGIHSASNFTNTNNYFTSVPKNFMELLTNQEAQQWVSGWRLNADSVLWGGHKVFMVKPEEPFQPVKEATQL

Variants of: B1
Test: raw area under fraction-flipped curve 0-4 h after induction (AUC4h, not background-subtracted), DNA-recorder readout of cleavage of the substrate (dimensionless); higher = more cleavage of the substrate by the protease variant
Conditions: temperature: 34 °C; time window: 0-4 h after rhamnose induction
Protocol: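 In vivo DNA recorder in E. coli TOP10(DE3) ΔrhaA at 34 °C. Each TEVp single-site mutant (parent TEVp 0) is paired with a single-site variant of the 7-mer TEVs (canonical ENLYFQ|S). The substrate sits between flexible linkers in a Bxb1-sfGFP-TEVs-SsrA fusion, so cleavage stabilises Bxb1 and speeds flipping of a recombination array, read by NGS. The value is the raw area under the fraction-flipped curve over 0-4 h after rhamnose induction (AUC4h), with ≥20 reads per time point. It is not background-subtracted; inactive controls average about 0.047.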
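Note: Bxb1 expression induced with 0.2% (w/v) L-rhamnose at OD600 near 0.5, cultures sampled hourly, flipped fraction per protease–substrate barcode pair counted by paired-end Illumina sequencing.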

Variant	area with substrate CNLYFQS	area with substrate FNLYFQS	area with substrate INLYFQS	area with substrate KNLYFQS	area with substrate LNLYFQS	area with substrate NNLYFQS	area with substrate PNLYFQS	area with substrate QNLYFQS	area with substrate TNLYFQS	area with substrate WNLYFQS	area with substrate HNLYFQS	area with substrate MNLYFQS	area with substrate SNLYFQS	area with substrate GNLYFQS	area with substrate RNLYFQS	area with substrate VNLYFQS	area with substrate YNLYFQS	area with substrate DNLYFQS
Q118H	0.0771	0.0766	0.0755	0.083	0.0552	0.0564	0.0684	0.0548	0.0719	0.0709	–	–	–	–	–	–	–	–
Q118F	0.0758	0.0582	–	0.0492	0.0641	–	–	–	0.0619	0.0672	0.0635	0.0763	0.0553	–	–	–	–	–
D91C	0.0533	–	0.0769	–	0.068	–	0.0539	–	0.0664	0.0572	–	–	0.0788	0.0816	–	–	–	–
Q105T	0.0656	–	0.059	–	0.0798	–	–	–	0.0528	0.067	–	–	–	0.0683	0.0714	0.0676	–	–
Q105K	0.0732	0.0702	0.0567	–	0.0602	0.0738	0.0725	–	0.0592	0.0626	0.0716	0.0728	0.0741	0.0757	–	0.0848	–	–
Q105N	0.0721	0.0582	0.0507	0.0601	0.0796	0.0731	0.0791	0.0683	0.0733	0.0666	0.0793	0.0717	0.086	0.0939	–	0.0695	0.0534	–
C111K	0.0759	0.0735	–	–	–	–	0.0712	–	0.0732	0.0706	0.059	–	0.0654	0.0693	0.036	–	0.0622	–
K100W	0.0588	–	–	–	–	0.053	0.0736	0.0609	–	0.0591	0.0541	0.063	0.0664	–	–	0.0821	0.0646	–
K100T	0.0867	–	–	–	0.0587	–	0.099	0.0466	–	–	0.036	–	–	0.0678	–	0.0631	–	–
K100N	0.0794	–	0.051	0.0626	–	–	–	–	0.0387	0.0629	–	–	–	–	–	–	0.0545	–
E108P	0.06	–	0.0488	0.0068	0.0337	–	–	–	0.0436	0.0538	0.0538	–	0.0406	–	–	–	0.0434	–
E108N	0.0622	0.0564	0.0571	0.074	0.0676	0.0689	0.0822	0.0647	0.0517	0.0529	0.0491	–	0.0587	0.061	–	0.0525	0.0472	–
E108Y	0.0567	0.112	0.0559	0.11	0.0363	0.0532	0.0468	–	0.0554	0.0548	0.056	0.0496	–	–	–	–	0.0451	–
F95R	0.045	0.0562	0.0565	0.0668	0.0503	0.0402	0.061	0.0681	0.0592	0.05	0.043	0.0239	0.0551	0.0619	–	0.0541	0.05	–
F95S	0.0554	0.0609	–	0.0694	0.0551	–	0.0525	0.0376	–	0.0541	0.0665	0.058	0.0613	0.0662	0.0654	0.0627	0.0566	–
K90F	0.0655	–	0.053	0.0418	0.0781	–	0.079	–	–	0.0665	0.0535	0.111	–	–	–	–	–	–

Variant	area with substrate CNLYFQS	area with substrate FNLYFQS	area with substrate INLYFQS	area with substrate KNLYFQS	area with substrate LNLYFQS	area with substrate NNLYFQS	area with substrate PNLYFQS	area with substrate QNLYFQS	area with substrate TNLYFQS	area with substrate WNLYFQS	area with substrate HNLYFQS	area with substrate MNLYFQS	area with substrate SNLYFQS	area with substrate GNLYFQS	area with substrate RNLYFQS	area with substrate VNLYFQS	area with substrate YNLYFQS	area with substrate DNLYFQS
K90I	0.0704	0.0566	0.0766	–	0.0644	0.0419	0.0856	0.067	0.0699	0.0509	0.0629	0.062	0.0629	0.0733	–	0.0467	0.0543	–
L99S	0.0614	0.0697	0.0642	0.0548	–	0.0716	0.0523	–	–	0.0472	0.0721	0.0588	0.0441	0.0642	–	–	0.0655	–
L99C	0.0701	0.0543	0.0593	0.0751	0.0511	–	0.0666	–	0.0689	0.0605	0.0774	0.0588	0.0662	0.0799	–	–	0.0655	–
P94D	0.0617	0.0478	0.0703	–	–	–	–	–	–	0.0815	–	0.0526	–	–	–	0.0618	0.0656	0.0788
P94Q	0.067	0.0642	–	0.0664	0.0721	0.0682	0.0663	–	0.0932	0.0664	0.0692	–	0.0597	0.0695	–	0.0672	0.0465	–
P94Y	0.0678	0.072	0.0926	–	–	0.0643	0.0683	–	0.106	0.0466	0.0675	–	–	–	–	–	–	–
P94E	0.0659	0.0746	–	–	0.0596	0.063	0.054	–	–	0.0601	0.0662	0.0637	–	0.0632	–	–	–	–
P89W	0.0454	–	0.0275	0.05	0.0692	0.0568	0.0677	–	0.0516	0.0462	0.0456	0.0471	–	–	0.0432	–	0.0432	–
P89E	0.0584	–	0.0544	0.0825	0.0626	0.0542	0.0634	0.0561	0.0604	0.0555	0.0483	–	0.0633	0.0817	–	0.0734	0.0517	–
P89F	0.074	–	–	0.0603	0.0486	–	–	–	0.0603	0.0422	0.0556	–	0.0527	0.0673	–	–	–	–
R81I	0.0623	–	0.0531	–	0.0678	0.0757	0.0607	–	0.0657	–	0.064	0.0611	0.0686	–	–	0.0787	–	–
R81G	0.0787	–	0.0613	–	0.0645	0.0565	0.0776	–	0.0339	0.0626	0.0661	–	0.0649	0.0638	–	0.0627	–	–
T114M	0.0702	0.0643	–	–	0.0779	0.0692	–	–	0.0765	0.0769	0.0428	0.0871	0.0645	0.0684	–	0.0624	0.0568	–
R109P	0.0534	0.0713	0.0635	0.0679	0.0738	0.0768	0.0732	–	0.0686	0.0659	0.0672	0.0545	–	0.0701	–	0.0698	0.0597	–
R109C	0.0614	–	0.08	–	0.0656	0.0689	0.0587	0.081	0.0631	0.0648	–	0.0588	–	0.0657	0.0502	0.0586	–	–
